Source: PubChem BioAssay AID504332 (National Center for Advancing Translational Sciences (NCATS), 2011)
Several values for one entry are separate records, joined by “and”; a condition that tells them apart may be missing. Equal values may be shown once. The campaign covered roughly 350,000 compounds. About 31,000 (8.9%) were called active. The inconclusive results got no clear call from the source; some entries with a clear call stand among them for comparison. The call rests on the fitted dose curve; in most records, active means well fitted inhibition curve with a large enough effect; inconclusive means small, poorly fitted or top-dose-only effect; inactive means no such curve, though single readings can be large or run the other way. Potencies of inconclusive entries are doubtful fits and often do not repeat.

molecular target: Histone-lysine N-methyltransferase EHMT2 (Homo sapiens) (UniProt Q96KQ7); test: qHTS Assay for Inhibitors of Histone Lysine Methyltransferase G9a; settings: G9a H3K9 monomethylation, AlphaScreen, 2 h; activity, negative = inhibition: at 59 µM (top of the series) unless noted; further: nearly all actives have a fitted effect of over 75% in size
Summary of the method: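 Compounds were preincubated with 20 nM G9a for 15 min, after which biotinylated H3K9 peptide (500 nM) and SAM (20 uM) started a 2 h room-temperature reaction. Monomethylated product was quantified by antibody-based AlphaScreen chemiluminescence.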
On the % scale 0 is the no-effect control and ±100 the full control effect; potency means the concentration at half of the fitted maximal effect; tags describe the fitted curve by direction and shape.

Chain of UniProt Q96KQ7 (Q96KQ7 whole entry, looked up): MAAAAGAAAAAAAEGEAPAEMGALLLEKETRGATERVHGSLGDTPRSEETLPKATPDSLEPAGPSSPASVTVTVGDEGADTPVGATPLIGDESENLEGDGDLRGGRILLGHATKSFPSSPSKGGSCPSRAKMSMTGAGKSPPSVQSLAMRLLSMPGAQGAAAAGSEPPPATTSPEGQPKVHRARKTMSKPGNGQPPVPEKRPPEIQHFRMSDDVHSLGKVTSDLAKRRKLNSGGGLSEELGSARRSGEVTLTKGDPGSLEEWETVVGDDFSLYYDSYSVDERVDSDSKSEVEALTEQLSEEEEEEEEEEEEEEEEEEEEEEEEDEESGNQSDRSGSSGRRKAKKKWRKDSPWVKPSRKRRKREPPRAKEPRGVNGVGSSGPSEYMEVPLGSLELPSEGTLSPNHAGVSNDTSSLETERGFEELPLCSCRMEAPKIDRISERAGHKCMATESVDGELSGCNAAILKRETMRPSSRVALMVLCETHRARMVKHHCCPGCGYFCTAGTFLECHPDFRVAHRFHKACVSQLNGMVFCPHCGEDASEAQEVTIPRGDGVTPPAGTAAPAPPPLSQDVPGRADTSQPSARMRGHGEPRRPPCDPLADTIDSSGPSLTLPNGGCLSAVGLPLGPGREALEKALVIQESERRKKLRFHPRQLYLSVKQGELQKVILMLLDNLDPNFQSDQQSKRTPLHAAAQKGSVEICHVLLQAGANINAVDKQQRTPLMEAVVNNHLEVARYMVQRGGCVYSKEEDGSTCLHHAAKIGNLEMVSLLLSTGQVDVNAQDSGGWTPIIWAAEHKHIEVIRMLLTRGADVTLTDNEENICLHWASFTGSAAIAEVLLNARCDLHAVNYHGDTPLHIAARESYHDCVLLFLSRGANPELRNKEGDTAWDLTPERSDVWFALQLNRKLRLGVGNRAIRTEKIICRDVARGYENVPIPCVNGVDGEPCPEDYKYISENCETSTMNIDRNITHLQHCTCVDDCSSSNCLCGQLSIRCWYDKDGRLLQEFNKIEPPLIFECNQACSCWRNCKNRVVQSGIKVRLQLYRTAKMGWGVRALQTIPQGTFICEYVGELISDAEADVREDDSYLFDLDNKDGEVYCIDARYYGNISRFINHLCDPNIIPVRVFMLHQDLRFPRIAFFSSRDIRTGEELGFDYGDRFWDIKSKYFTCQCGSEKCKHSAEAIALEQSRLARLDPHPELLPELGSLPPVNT

Row | SMILES | Potency | activity, negative = inhibition
1 | CN(CC(=O)NC(=O)NCc1ccccc1)CC(=O)Nc1ccc(Cl)c(Cl)c1 | inconclusive: 5.01 µM [inhibitor, full curve, poor fit] | –
2 | O=C(O)c1ccc(/C=N/N2CCN(c3ccccc3)CC2)cc1 | inconclusive: 89.1 µM [inhibitor, single point] | –
3 | COc1cc(/C=C2/SC(=S)N(Cc3ccccc3)C2=O)ccc1OS(C)(=O)=O | active: 12.6 µM | –
4 | O=C(CSc1ncn[nH]1)NC1CC2CCC1C2 (stereo not given) | – | inactive: -17.3% [at 12.7 µM]
5 | Cc1nc2ccccn2c(=O)c1NC(=O)c1ccc(F)c(F)c1 | – | inactive: -17.5%
6 | CCn1c(N2CCC(C)CC2)nc2c1c(=O)n(C)c(=O)n2C | – | inactive: 15.5% [at 102 µM]
7 | O=C(N/C(=C/c1cccc(Br)c1)c1nc(=S)[nH][nH]1)c1ccccc1 | inconclusive: 35.5 µM [inhibitor, single point] | –
8 | CN(C)c1ccc(N=Cc2nc(-c3ccccc3)oc2OC(=O)c2cccc(Cl)c2)cc1 | active: 8.91 µM | –
9 | COc1ccc(C(C)=O)cc1COC(=O)Cc1cc(OC)c(OC)c(OC)c1 | inconclusive: 89.1 µM [inhibitor, single point] | –
10 | CCOc1cc(N2CCOCC2)c(OCC)cc1NC(=O)COc1cccc(Cl)c1 | inconclusive: 3.55 µM [inhibitor, full curve, poor fit] | –
11 | Cc1ccc(C)c(N2CCN(S(=O)(=O)c3cc(C(=O)Nc4ccc(Oc5ccccc5)cc4)ccc3F)CC2)c1 | – | inactive: -6.94%
12 | O=C(Nc1cccc(Cl)c1)C1C2C=CC3(O2)C1C(=O)N(CCCN1CCCCC1)C3C(=O)NC1CCCCC1 (stereo not given) | inconclusive: 79.4 µM [inhibitor, single point] | –
13 | O=C(O)CCc1cc(I)c(O)c(I)c1 | inconclusive: 22.4 µM [inhibitor, single point] | –
14 | Cc1ccc(S(=O)(=O)c2nnn3c2nc(NCc2ccc4c(c2)OCO4)c2sccc23)cc1C | inconclusive: 3.55 µM [inhibitor, partial curve, poor fit] | –
15 | O=C(CCN1CCN(c2ccccc2F)CC1)c1ccc(Br)cc1 | active: 3.16 µM | –
16 | CC1CCc2c(sc(N)c2C(N)=O)C1 (stereo not given) | inconclusive: 3.55 µM [inhibitor, single point] | –
17 | Cc1ccc(NC(=O)CN(C)C(=O)c2cccc(S(=O)(=O)NCc3ccco3)c2)cc1 | inconclusive: 35.5 µM [inhibitor, single point] | –
18 | O=C(NCCN1CCOCC1)C1CCN(Cc2ccccc2O)CC1 | active: 22.4 µM | –
19 | COc1ccc(Cl)cc1N1C(=O)c2cccnc2C1=O | – | inactive: -7.71% [at 102 µM]
20 | O=C(CCC1CCCC1)N1CCC(N2CCN(c3ccccc3)CC2)CC1 | inconclusive: 2.51 µM [inhibitor, partial curve, poor fit] | –
21 | O=C(CN1CCN(C(=O)C2CC2)CC1)Nc1cc(C(F)(F)F)cc(C(F)(F)F)c1 | inconclusive: 3.16 µM [inhibitor, single point] | –
22 | COC(=O)N/N=C(\C)c1cccc(C(F)(F)F)c1 | – | inactive: 9.43% [at 102 µM]
23 | Cc1nn(Cc2ccc(F)cc2)c(C)c1NC(=O)CCCn1nc([N+](=O)[O-])cc1C | – | inactive: 5.73% [at 102 µM]
24 | Cc1nc2ccccc2c(=O)n1/N=C/c1ccc(F)cc1 | inconclusive: 0.794 µM [inhibitor, single point] | –

Row | SMILES | Potency | activity, negative = inhibition
25 | Cc1nc(SCC(N)=O)c(C#N)c(C)c1C | – | inactive: -3.38% [at 102 µM]
26 | N=C(N)SCc1cn(-c2ccccc2)nc1-c1ccc(Br)cc1 | active: 50.1 µM | –
27 | Cc1nc(-c2ccc(F)cc2)c(CC(=O)N2CCN(S(=O)(=O)c3ccc(F)cc3)CC2)s1 | inconclusive: 89.1 µM [inhibitor, single point] | –
28 | CN1C(=O)N(C)c2cccc3cccc1c23 | – | inactive: 20.1% [at 2.33 µM]
29 | CN(CC(=O)Nc1cccc(F)c1)C(=O)/C=C/c1cc(Br)ccc1OC(F)F | inconclusive: 44.7 µM [inhibitor, partial curve] | –
30 | O=C(CSc1ccc(Cl)cc1)N1CCN(c2ccc(Cl)cc2[N+](=O)[O-])CC1 | active: 20 µM | –
31 | CC(C)NC(=O)c1ccc(Cn2c(SCC(N)=O)nc3ccccc3c2=O)cc1 | – | inactive: 5.36%
32 | Cc1cc(OCC(=O)Nc2c(C)n(C)n(-c3ccccc3)c2=O)ccc1[N+](=O)[O-] | inconclusive: 89.1 µM [inhibitor, single point] | –
33 | COc1ccccc1CN(C)CC(=O)Nc1ccc(Cl)cc1F | – | inactive: 45.2% [at 102 µM]
34 | CC[C@@H]1C(c2ccccc2)=NN(c2ccc(Br)cc2)[C@H]1C(=O)N1CCOC1=O | – | inactive: 119%
35 | CC1CCC2C(=O)N(c3ccc(C(=O)Oc4cccc5cccnc45)cc3)C(=O)C2C1 (stereo not given) | inconclusive: 2.82 µM [inhibitor, full curve, poor fit] | –
36 | CCN(CC)C(=O)c1[nH]cnc1C(=O)N[C@@H](Cc1ccccc1)C(=O)OC(C)(C)C | inconclusive: 44.7 µM [inhibitor, partial curve] | –
37 | Cc1cc(C)c2sc(C)[n+](CCCS(=O)(=O)[O-])c2c1 | – | inactive: -43.6% [at 102 µM]
38 | COC(=O)C(C)Sc1ccc2nnc(CCNS(=O)(=O)c3ccc(C)cc3)n2n1 (stereo not given) | inconclusive: 794 nM [inhibitor, partial curve, poor fit] and inconclusive: 50.1 µM [inhibitor, partial curve, poor fit] | –
39 | CCOC(=O)c1cc2c(ccn2C)n1CC(=O)N1CCN(c2ccccc2OC)CC1 | inconclusive: 89.1 µM [inhibitor, single point] | –
40 | Oc1ccc(COc2cccc3ccccc23)c2cccnc12 | inconclusive: 3.98 µM [inhibitor, single point] | –
41 | O=C(O)c1cn(-c2ccc(F)cc2)c2cc(Cl)c(F)cc2c1=O | inconclusive: 89.1 µM [inhibitor, single point] | –
42 | CC(=C/C(=O)O)/C=C/c1ccc(Cl)o1 | active: 11.2 µM | –
43 | COC(=O)/C=C/C(=O)N1CCN(c2ccccc2)CC1 | active: 50.1 µM | –
44 | Cc1ccc(NC(=O)c2ccc(C(C)(C)C)cc2)cc1[N+](=O)[O-] | inconclusive: 7.08 µM [inhibitor, full curve, poor fit] | –
45 | COc1ccc(C2CC(=O)N3CN(C4CCCCC4)CSC3=C2C#N)c(OC)c1 (stereo not given) | active: 2.51 µM | –
46 | COc1cccc(C(=O)Nc2cccc(NC(=O)c3cccs3)c2)c1 | – | inactive: 11.4% [at 102 µM]
47 | Cn1c(SCC(=O)Nc2cccc(F)c2)nnc1-c1cc2ccccc2o1 | – | inactive: 6.23% [at 12.7 µM]
48 | COc1cc(Cl)c(C)cc1Nc1nc2ccccc2c2nnc(C)n12 | – | inactive: 6.76%

Row | SMILES | Potency | activity, negative = inhibition
49 | CC(=O)N(Cc1ccco1)C1(C(=O)NC2CCCCC2)CCCCC1 | inconclusive: 100 µM [inhibitor, partial curve, poor fit] | –
50 | CCc1ccc(OCc2nnc(-c3ccccc3Br)o2)cc1 | inconclusive: 3.55 µM [inhibitor, full curve, poor fit] | –
51 | Cc1nc(SCC(=O)N2CC(C)OC(C)C2)nc(C)c1C (stereo not given) | inconclusive: 50.1 µM [inhibitor, partial curve] | –
52 | O=C(c1nc2nc(-c3cccs3)cc(C(F)(F)F)n2n1)N1CCN(Cc2ccccc2)CC1 | inconclusive: 31.6 µM [inhibitor, single point] | –
53 | NC(=O)CC(NC(=O)c1ccccc1)c1ccc(N2CCCCCCC2)c([N+](=O)[O-])c1 (stereo not given) | active: 44.7 µM | –
54 | C#CCOCCOCCOCCNc1nc(N2CCN(C(=O)[C@H](Cc3ccc(O)cc3)n3cc([C@@H](N)C(C)CC)nn3)CC2)nc(N2CCN(C(=O)[C@H](Cc3cc4ccccc4[nH]3)n3cc([C@@H](N)Cc4ccc(O)cc4)nn3)CC2)n1 (stereo not given in full) | inconclusive: 25.1 µM [inhibitor, single point] | –
55 | O=C(c1cnc2ccc3ccccc3c2c1)c1cc(F)ccc1O | – | inconclusive: -78.8% [inhibitor]
56 | COc1ccc(NC(=S)NC2CCCCCC2)c(OC)c1 | inconclusive: 22.4 µM [inhibitor, single point] | –
57 | Nc1cccc2c1C(=O)N(C(=O)/C=C/c1cccc(F)c1)C2=O | inconclusive: 44.7 µM [inhibitor, partial curve, poor fit] | –
58 | COc1cc(S(=O)(=O)N(Cc2ccccn2)Cc2ccco2)ccc1-n1cnnn1 | inconclusive: 39.8 µM [inhibitor, single point] | –
59 | O=C(Cn1c(=O)c2cccn2c2cccnc21)NCCCN1CCN(c2ccc(F)cc2)CC1 | inconclusive: 17.8 µM [inhibitor, single point] | –
60 | CC(C)OCCCn1c(=NC(=O)c2ccncc2)c(C#N)cc2c(=O)n3ccccc3nc21 | inconclusive: 89.1 µM [inhibitor, single point] | –
61 | N#Cc1cccc(C(c2nnnn2Cc2ccccc2)N2CCCC2)c1 (stereo not given) | – | inactive: 10.1%
62 | COc1ccc(Nc2ncc3c(n2)CCN(Cc2ccccc2C)C3)c(OC)c1 | inconclusive: 8.91 µM [inhibitor, partial curve, poor fit] | –
63 | Cc1[nH]c(=O)[nH]c(=O)c1S(=O)(=O)N1CCCC(C(=O)NCCc2ccccc2)C1 (stereo not given) | – | inactive: -39.2% [at 102 µM]
64 | CCOC(=O)CN1C(=O)C(O)=C(C(C)=O)C1c1ccc(F)cc1 (stereo not given) | active: 35.5 µM | –
65 | COc1cc2c(cc1OC)CN(Cc1cc(=O)oc3c(C)c(C)ccc13)CC2 | active: 25.1 µM | –
66 | COc1ccc(Cc2nnc(NC(=O)c3ccco3)s2)cc1 | inconclusive: 89.1 µM [inhibitor, single point] | –
67 | O=C(Nc1cccc(C(F)(F)F)c1)c1ccc2c(c1)nnn2C1CCCC1 | – | inactive: 2.89%
68 | CC(=O)NNC(=S)NC(=O)c1ccccc1 | active: 6.31 µM | –
69 | O=C(/C=C/c1ccc2c(c1)OCCCO2)c1ccc2ccccc2c1O | active: 11.2 µM | –
70 | CCOC(=O)c1ccccc1NC(=O)COC(=O)CSCC(=O)Nc1cc(C)on1 | inconclusive: 44.7 µM [inhibitor, partial curve, poor fit] | –
